Values belong to the binder of their own block, whether it stands above or below them.
How the values were obtained:
[1] = molecular target: T1, human MSLN-R3-his protein (human, UniProt Q13421 487-598); assay: ELISA
T1 construct: MSLN-R3 = Met487-Ser598; also called hMSLN-R3-his; not shown: histidine tag

[2] = molecular target: T2, chimeric human MSLN-R3 / chicken MSLN-R1-2 protein on HEK293T cells (clone A5) (chicken; human); assay: FACS, HEK293T-chickR1-2/hR3-A5 cells
T2 construct: range 327-514; Human R1-R2 replaced by chicken R1-R2; also called HEK293T-chickR1-2/hR3-A5; HEK293T-hR3/chickR1-2-A5

[3] = molecular target: T3, human MSLN protein endogenously expressed on tumor cells (Hela, OVCAR3) (human, UniProt Q13421 296-598); assay: FACS, OVCAR3 cells
T3 construct: whole, on cells

[4] = molecular target: T4, human MSLN full-length protein, recombinant, on CHO-K1 or HEK293T cells (human, UniProt Q13421 296-598); assay: FACS, HEK293T-hMSLN-B8 cells
T4 construct: The background says that the precursor is cleaved by furin to the mature membrane form; also called hMSLN; CHO-K1-hMSLN-2C8

[5] = molecular target: T3, human MSLN protein endogenously …; assay: FACS, OVCAR3 cells, antibody 2 nM
[6] = molecular target: T3, human MSLN protein endogenously …; assay: FACS, OVCAR3 cells, antibody 20 nM
[7] = molecular target: T3, human MSLN protein endogenously …; assay: FACS, OVCAR3 cells, antibody 0.2 nM
[8] = molecular target: T5, human MSLN-FL-his protein (human, UniProt Q13421 296-580); assay: SPR, antibody captured on Protein A chip, MSLN-FL-his injected, 1:1 model
T5 construct: Made in HEK293E cells, purified on nickel column; also called hMSLN-FL-his; not shown: histidine tag

[9] = molecular target: T3, human MSLN protein endogenously …; assay: FACS, Hela cells
[10] = molecular target: T4, human MSLN full-length protein, …; assay: FACS, CHO-K1-hMSLN-2C8 cells
[11] = molecular target: T4, human MSLN full-length protein, …; assay: FACS, HEK293T-hMSLN-B8 cells, antibody 20 nM
[12] = molecular target: T4, human MSLN full-length protein, …; assay: FACS, HEK293T-hMSLN-B8 cells, antibody 0.2 nM
[13] = molecular target: T2, chimeric human MSLN-R3 / chicken …; assay: FACS, HEK293T-hR3/chickR1-2-A5 cells, antibody 20 nM
[14] = molecular target: T2, chimeric human MSLN-R3 / chicken …; assay: FACS, HEK293T-hR3/chickR1-2-A5 cells, antibody 0.2 nM
[15] = molecular target: T4, human MSLN full-length protein, …; assay: competitive FACS on CHO-K1-human MSLN-2C8 cells vs Biotin-Tab142; competitor at 4 nM
[16] = molecular target: T4, human MSLN full-length protein, …; assay: competitive FACS on CHO-K1-human MSLN-2C8 cells vs Biotin-Tab142; competitor at 20 nM
[17] = molecular target: T4, human MSLN full-length protein, …; assay: competitive FACS on CHO-K1-human MSLN-2C8 cells vs Biotin-Tab142; competitor at 0.8 nM
[18] = molecular target: T4, human MSLN full-length protein, …; assay: competitive FACS on CHO-K1-human MSLN-2C8 cells vs Biotin-Tab142; competitor at 100 nM
[19] = molecular target: T4, human MSLN full-length protein, …; assay: competitive FACS on CHO-K1-human MSLN-2C8 cells vs Biotin-Tab142; competitor at 0.16 nM
[20] = molecular target: T4, human MSLN full-length protein, …; assay: competitive FACS on CHO-K1-human MSLN-2C8 cells vs Biotin-Tab142; competitor at 0.032 nM
[21] = molecular target: T4, human MSLN full-length protein, …; assay: competitive FACS on CHO-K1-human MSLN-2C8 cells vs Biotin-Tab142; competitor at 0.0064 nM
[22] = molecular target: T4, human MSLN full-length protein, …; assay: competitive FACS on CHO-K1-human MSLN-2C8 cells vs Biotin-Tab142; competitor at 0.00128 nM

B1: NB148-46 VHH-hFc (Fc fusion)
chain: EVQLVESGGGLVQAGGSLRLSCAASGSTFSSYPMGWYRQAPGKQRELVAAISSGGSTNYADSVKGRFTISRDNAKNTVYLQMNSLKPEDTAVYYCNTRSPRVPNDSWGQGTQVTVSS[human IgG1 Fc with changes not written out]
binding result [1]: no binding (tested: starting concentration of 100 nM)

B2: NB149-31 VHH-hFc (Fc fusion)
chain: EVQVVESGGGLVQPGGSLRLSCAASGITFSGNYGGWFRQAPGEQRELVASMSSALGTKYADPVKGRFTISTDTAKNTVDLQMNSLGPEDTAVYYCYARVRLSRGGWGSEYWGQGTQVTVSS[human IgG1 Fc with changes not written out]
binding result [1]: no binding (tested: starting concentration of 100 nM)

B3: NB149-95 VHH-hFc (Fc fusion)
chain: QVQLVESGGGLVQAGGSLRLSCTASESGFSANYMGWYRQEAPGKERELVATINRFGSTNYADSVKGRFTISRDNAKNTVYLQMNSLKSEDTGVYYCRIMRPGNWYWGQGTQVTVSS[human IgG1 Fc with changes not written out]
binding result [1]: no binding (tested: starting concentration of 100 nM)

EC50 [2]: ~4.62 nM
B4: Tab108 (YP218, scFv-hIgG1 Fc) (Fc fusion)
chain: QQQLEESGGGLVKPEGSLTLTCKASGFDLGFYFYACWVRQAPGKGLEWIACIYTAGSGSTYYASWAKGRFTISKASSTTVTLQMTSLAAADTATYFCARSTANTRSTYYLNLWGPGTLVTVSSGGGGSGGGGSGGGGSDVVMTQTPASVSEPVGGTVTIKCQASQRISSYLSWYQQKPGQRPKLLIFGASTLASGVPSRFKGSGSGTEYTLTISDLECADAATYYCQSYAYFDSNNWHAFGGGTEVVV[human IgG1 Fc with changes not written out]
notes: also called YP218 scFv-human IgG1 Fc (hFc) antibody

B5: NB149-70 VHH-hFc (Fc fusion)
chain: QVQLVESGGGLVQPGGSLRLSCAASGSIFSGNAVAWYRQAPGKEREAVAVITRDGDTKYADSVKGRFTISRYNAKNIAYLQMNSLKPEDTAVYYCNTARGAAVDSWGQGTQVTVSS[human IgG1 Fc with changes not written out]
binding result [1]: no binding (tested: starting concentration of 100 nM)

B6: NB148-35 VHH-hFc (Fc fusion)
chain: EVQVVESGGGLVQPGGSLRLSCGVSGSILALNTMRWYRQTPGNQREWVASIYSSGGSTGYADSVKGRFIISRDSAKNMMSLQMNSLKSEDTAVYYCNVQTPLNVYWGQGTQVTVSS[human IgG1 Fc with changes not written out]
binding result [1]: no binding (tested: starting concentration of 100 nM)

EC50 [3]: 3.54 nM
EC50 [4]: 4 nM
MFI [5]: 5760
MFI [6]: 11600
MFI [7]: 1200
Kd [8]: 0.184 nM
koff [8]: 0.000174 s⁻¹
kon [8]: 945000 M⁻¹ s⁻¹
B7: NB149-97 VHH-hFc (Fc fusion)
chain: EVQVVESGGGLVQAGGGLRLSCAASERTFSSSSIGWFRQAPGKEREFVATMNRIGGHTFYADPVKGRFTISRDNAANTVYLQMSSLKPEDAAVYYCASSRIYSHSPRDYDYWSQGTQVTVSS[human IgG1 Fc with changes not written out]

B8: NB149-97 VHH-hFc (Fc fusion)
chain: EVQVVESGGGLVQAGGGLRLSCAASERTFSSSSIGWFRQAPGKEREFVATMNRIGGHTFYADPVKGRFTISRDNAANTVYLQMSSLKPEDAAVYYCASSRIYSHSPRDYDYWSQGTQVTVSS[human IgG1 Fc with changes not written out]
binding result [1]: no binding (tested: starting concentration of 100 nM)

B9: NB149-34 VHH-hFc (Fc fusion)
chain: QLQLVESGGGLVQPGGSLRLSCAASGSVNSITAMGWYRQGPGNERELVAVITDRGRASYADSVKGRFAISMDNDKHTVYLQMDSLKPEDTAVYYCNAHRRTWPHPGDYWGQGTQVTVSS[human IgG1 Fc with changes not written out]
binding result [1]: no binding (tested: starting concentration of 100 nM)

EC50 [9]: 0.3 nM
Max MFI [9]: 348
EC50 [10]: 2.2 nM
Max MFI [10]: 11700
MFI [5]: 4640
MFI [6]: 10900
MFI [7]: 883
MFI [11]: 23400
MFI [12]: 1330
MFI [13]: 74
MFI [14]: 71
Kd [8]: 0.533 nM
koff [8]: 0.000579 s⁻¹
kon [8]: 1.09e+06 M⁻¹ s⁻¹
MFI of Biotin-Tab142 [15]: 33900
MFI of Biotin-Tab142 [16]: 25100
MFI of Biotin-Tab142 [17]: 39600
MFI of Biotin-Tab142 [18]: 16400
MFI of Biotin-Tab142 [19]: 41800
MFI of Biotin-Tab142 [20]: 42400
MFI of Biotin-Tab142 [21]: 43600
MFI of Biotin-Tab142 [22]: 41200
B10: NB149-81 VHH-hFc (Fc fusion)
chain: EVQLVESGGGLVQAGGALRLSCAASERTFSSSSMGWFRQAPGKEREFVAAINRIGGHIYYADSVKGRFTISKDNAKNTVYLQMSSLKPEDTAVYYCASSRIYSHSARDYDYWGQGTQVTVSS[human IgG1 Fc with changes not written out]

B11: NB149-81 VHH-hFc (Fc fusion)
chain: EVQLVESGGGLVQAGGALRLSCAASERTFSSSSMGWFRQAPGKEREFVAAINRIGGHIYYADSVKGRFTISKDNAKNTVYLQMSSLKPEDTAVYYCASSRIYSHSARDYDYWGQGTQVTVSS[human IgG1 Fc with changes not written out]
binding result [1]: no binding (tested: starting concentration of 100 nM)

B12: NB148-88 VHH-hFc (Fc fusion)
chain: QLQLVESGGGLVQPGGSHRLSCAVSVSTFTRYAMRWYRQAPGKEREWLTSIYSDGSSAYADSVKDRFTISLDNAKNMLYLQMNSLKPEDTAVYYCNANVDSKAYWGQGTQVTVAS[human IgG1 Fc with changes not written out]
binding result [1]: no binding (tested: starting concentration of 100 nM)

B13: NB148-27 VHH-hFc (Fc fusion)
chain: EVQVVESGGGLVQAGASLRLSCASSGRTISPIAMAWFRQAPGKERELVAGLTWTGRTYYSDSVKGRFTISRDNAKNTVYLQMDSLKFEDTAVYFCAAGDNPDRRGSSWSSSSVYEYWGQGTQVTVSS[human IgG1 Fc with changes not written out]
binding result [1]: no binding (tested: starting concentration of 100 nM)

From patent publication US20240124563A1 (NANJING ZAIMING PHARMACEUTICAL, published 2024)
